Data from PubChem BioAssay AID1347043 (National Center for Advancing Translational Sciences (NCATS), 2019).
In all, about 76,000 compounds went through this assay and about 1,900 (2.5%) were called active. Inconclusive results, whose numbers are uncertain, are shown with a selection of clear calls. The call rests on the fitted dose curve; in most records, active means well fitted inhibition curve with a large enough effect; inconclusive means small, poorly fitted or top-dose-only effect; inactive means flat fitted curve, though single readings scatter. A potency beside an inconclusive call is a rough fit, not a confirmed value.

What follows are molecules tested against Luciferin 4-monooxygenase (Photinus pyralis) (UniProt P08659) (assay: Firefly luciferase inhibition profiling of diverse chemical library using quantitative high-throughput screening). Conditions: purified P. pyralis luciferase, luminescence, biochemical; activity change, negative = inhibition: at 115 µM (top of the series) unless noted.
UniProt P08659, sequence (P08659 whole entry, looked up): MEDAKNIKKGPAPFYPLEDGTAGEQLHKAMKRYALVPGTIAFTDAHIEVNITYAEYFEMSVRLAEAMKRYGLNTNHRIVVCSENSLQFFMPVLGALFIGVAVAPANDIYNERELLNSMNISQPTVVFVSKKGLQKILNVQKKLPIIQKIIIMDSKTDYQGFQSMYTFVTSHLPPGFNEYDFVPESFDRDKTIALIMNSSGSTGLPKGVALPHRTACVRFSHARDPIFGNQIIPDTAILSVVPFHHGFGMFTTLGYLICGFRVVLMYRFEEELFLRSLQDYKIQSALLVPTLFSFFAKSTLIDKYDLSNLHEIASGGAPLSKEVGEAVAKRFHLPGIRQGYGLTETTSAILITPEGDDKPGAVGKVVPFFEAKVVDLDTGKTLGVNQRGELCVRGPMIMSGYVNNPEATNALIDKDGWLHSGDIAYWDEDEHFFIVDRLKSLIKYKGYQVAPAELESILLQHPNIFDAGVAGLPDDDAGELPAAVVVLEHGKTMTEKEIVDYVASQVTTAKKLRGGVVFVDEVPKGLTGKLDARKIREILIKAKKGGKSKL
Procedure, shortened: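 FLuc 10nM, D-luciferin 10uM, ATP 10uM, Mg acetate 10mM, Tris acetate pH 7.5, Tween/BSA; cpd qHTS; enzyme added last; CCD luminescence.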
Further: nearly all actives have a fitted effect of over 65% in size.
On the % scale 0 is the no-effect control and ±100 the full control effect; potency means the concentration at half of the fitted maximal effect; tags describe the fitted curve by direction and shape.

| SMILES | Potency | activity change, negative = inhibition |
| --- | --- | --- |
| Cn1c2c(c3cc(F)ccc31)CN(C(=O)Nc1ccc(F)c(Cl)c1)CC2 | inconclusive: 50.1 µM [inhibitor, partial curve, poor fit] | – |
| COCc1nncn1C1CCN(S(=O)(=O)c2cc(Cl)ccc2OC)CC1 | – | inactive: -0.325% |
| CCN1CCN(c2ccc(-c3nc(CCCc4ccccc4)no3)cn2)CC1 | inconclusive: 4.47 µM [inhibitor, partial curve, poor fit] | – |
| CC1=C[C@@H](CNC(=O)c2ccncc2)[C@H](C(C)C)C[C@H]1CC(=O)N1CCN(C)CC1 | active: 20 µM | – |
| COC[C@]1(O)CCN(C(=O)CN2CCCC2)CC1(C)C | inconclusive: 44.7 µM [inhibitor, partial curve] | – |
| O=C1NCCOCCN(C(=O)Nc2ccc3c(c2)OCCO3)[C@@H]2CCCC[C@H]12 | active: 15.8 µM | – |
| O=C(NC1CCCN(c2cc(-c3ccc(F)cc3)[nH]n2)C1)c1ccsc1 (stereo not drawn) | inconclusive: 31.6 µM [inhibitor, partial curve] | – |
| COCC(=O)N1c2ccccc2CC1c1noc(C(C)C)n1 (stereo not drawn) | active: 15.8 µM | – |
| COc1ccc(-c2cc3c(=O)n(CCNC(=O)c4cccc5[nH]ccc45)ccn3n2)cc1 | active: 6.31 µM | – |
| COc1ccc(CN2Cc3[nH]cnc3C[C@H]2c2nc(-c3ccccc3)no2)cc1 | inconclusive: 70.8 µM [inhibitor, partial curve] | – |
| Cc1ccc(C(=O)N[C@H]2CO[C@H]3[C@@H]2OC[C@H]3OC(=O)Nc2ccc(C(C)C)cc2)cc1 | inconclusive: 126 µM [inhibitor, single point] | – |
| O=C(Cc1cccc(F)c1)N1CC(Oc2ccc(-c3nc(-c4ccccc4)no3)cc2)C1 | active: 2 µM | – |
| COc1cccc(CN2CCC(N3C(=O)C4(CCCCC4)C3c3ccncc3)CC2)c1OC (stereo not drawn) | – | inactive: -10.1% |
| O=C(c1ccoc1)N1CC[C@@H]2COCCN(Cc3ccccc3)[C@@H]2C1 | inconclusive: 50.1 µM [inhibitor, partial curve] | – |
| Cc1cccc(OC[C@H]2C[C@@H](NC(=O)Nc3ccccc3)[C@H](O)[C@@H]2O)n1 | inconclusive: 3.55 µM [inhibitor, full curve, poor fit] | – |
| COc1ccc(C(=O)N2CC[C@H]3C(=O)NCCCCCCN(Cc4ccncc4)[C@@H]3C2)c(OC)n1 | – | inactive: -6% |
| O=C(NCCn1cccc1-c1nc(-c2ccc3c(c2)OCO3)no1)c1cccc(Cl)c1 | inconclusive: 39.8 µM [inhibitor, partial curve] | – |
| CCn1cnnc1CC1CCN(C(=O)c2cc(-c3ccc(C)c(C)c3)nc3ccccc23)CC1 | active: 7.94 µM | – |
| COc1ccc(C)cc1NC(=O)C1CCN(c2cnc3nc(C)c(C)nc3c2)CC1 | inconclusive: 39.8 µM [inhibitor, partial curve, poor fit] | – |
| CC(Cc1ccncc1)Nc1nccc(-c2cnn(-c3ccccc3F)c2)n1 (stereo not drawn) | inconclusive: 56.2 µM [inhibitor, partial curve] | – |
| COc1ccc(CNC(=O)c2cccc3c2CCN3C(=O)c2ccc(F)cc2)cc1OC | inconclusive: 39.8 µM [inhibitor, partial curve] | – |
| CCC(=O)N1CCCCCC1c1nnc(-c2ccccc2)o1 (stereo not drawn) | – | inactive: -2.43% |

| SMILES | Potency | activity change, negative = inhibition |
| --- | --- | --- |
| CC(C)COC(=O)N1CCCn2nc(-c3nc4ccccc4n3C)cc2C1 | inconclusive: 50.1 µM [inhibitor, partial curve, poor fit] | – |
| C[C@@H]1CN(C(=O)CN2CCN(c3ncccn3)CC2)C[C@@]1(O)C1CCC1 | – | inactive: 0.598% |
| O=C(CN1C(=O)NC2(CCCCC2)C1=O)Nc1ccc2c(c1)OCCO2 | inconclusive: 50.1 µM [inhibitor, partial curve] | – |
| Cn1cccc1CN1CCC2(CC1)CC(=O)c1ccccc1O2 | inconclusive: 89.1 µM [inhibitor, partial curve] | – |
| C=CCOc1cccc(-c2nc(C(=O)Nc3ccccc3)cs2)c1 | inconclusive: 14.1 µM [inhibitor, full curve, poor fit] | – |
| COc1ccc(C(=O)Nc2ccc([C@H]3OCC(=O)N[C@@H]3CO)cc2)cc1 | inconclusive: 50.1 µM [inhibitor, partial curve] | – |
| COc1ccc(CN2C(=O)[C@@H]3C[C@@H](CN3Cc3cccs3)Oc3ccccc32)cc1 | – | inactive: -25.3% [at 172 µM] |
| CCC(CC)NC(=O)C1CCc2nc(N3CCN(C(=O)C(C)C)CC3)sc2C1 (stereo not drawn) | – | inactive: -11.6% |
| O=C1C[C@H]2CC[C@@H](CN1)N2Cc1ccc(OCc2ccccc2)cc1 | active: 11.2 µM | – |
| Cc1nc2c(c(-c3ccc(Cl)cc3)n1)CCN(C(=O)Cc1cccc(Cl)c1)CC2 | – | inactive: 0.833% |
| Cc1cccc(-c2ccccc2C(=O)N2CCCC(CO)(Cc3ccccc3F)C2)c1 (stereo not drawn) | – | inactive: 5.81% |
| O=C(NC1CCN(c2cc(-c3ccccc3)[nH]n2)CC1)c1ccccc1Cl | inconclusive: 50.1 µM [inhibitor, partial curve] | – |
| Cc1ccc(NC(=O)N2CCc3c(C(=O)N(C)C)cccc32)cc1 | active: 15.8 µM | – |
| Cc1ccc(CS(=O)(=O)N[C@@H]2CN(c3ncccn3)C[C@H]2CN(C)C)cc1 | inconclusive: 44.7 µM [inhibitor, partial curve] | – |
| O=C(NCc1ccnc2[nH]ccc12)c1cccc(Cl)c1 | inconclusive: 89.1 µM [inhibitor, partial curve, poor fit] | – |
| COCCN(CCOC)C(=O)[C@@H](C)C1CC[C@@]2(C)CC[C@H](NC(=O)COC)[C@@H](C)[C@@H]2[C@H]1O (stereo partly drawn) | – | inactive: 0.808% |
| CN1CCCC1COc1ccc2c(n1)CN(Cc1ccc(C(F)(F)F)cc1)C(=O)CO2 (stereo not drawn) | – | inactive: 3.02% [at 172 µM] |
| COc1ccc(Cl)cc1-c1ccc2c(c1)C(=O)N1CCN(C(=O)COc3ccccc3)C[C@@H]1C(=O)N2 | – | inactive: 5.2% |
| Cc1ccc(C2=NC3(CCN(C(=O)c4cc(Cl)ccc4F)CC3)ON2)cc1 | inconclusive: 56.2 µM [inhibitor, partial curve] | – |
| CN(C)c1ccc(-c2nnc([C@H]3CCN(Cc4ccco4)C3)o2)cc1 | inconclusive: 70.8 µM [inhibitor, partial curve] | – |
| O=C(NCC1CCCO1)c1noc(-c2ccccc2F)n1 (stereo not drawn) | inconclusive: 50.1 µM [inhibitor, partial curve] | – |
